Experimental data as given in the supplement of paper PMC8728848.
The list shows a part of the results.

Legend:
Test in all cases: glycan array binding signal (z-score within array); higher = stronger binding
Settings in all cases: glycan notation: IUPAC condensed, linker removed
Fuc(a1-2)Gal = biological target: Fuc(a1-2)Gal
How it was run: (§1)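 The binding signal is a Z-score computed within each array. Data were drawn from 3228 arrays in the Consortium for Functional Glycomics database, restricted to those with a known protein sequence. Scores were averaged over arrays of the same protein sequence at different concentrations or buffers, and over linkers, and negative values can be taken as non-binding.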

Fuc(a1-2)Gal(b1-3)GalNAc = biological target: Fuc(a1-2)Gal(b1-3)GalNAc
How it was run: as §1

[1] = biological target: Fuc(a1-2)Gal(b1-3)GalNAc(a1-3)[Fuc(a1-2)]Gal(b1-4)Glc
How it was run: as §1

[2] = biological target: Fuc(a1-2)Gal(b1-3)GalNAc(a1-3)[Fuc(a1-2)]Gal(b1-4)GlcNAc
How it was run: as §1

[3] = biological target: Fuc(a1-2)Gal(b1-3)GalNAc(b1-3)Gal
How it was run: as §1

[4] = biological target: Fuc(a1-2)Gal(b1-3)GalNAc(b1-3)Gal(a1-4)Gal(b1-4)Glc
How it was run: as §1

[5] = biological target: Fuc(a1-2)Gal(b1-3)GalNAc(b1-4)[Neu5Ac(a2-3)]Gal(b1-4)Glc
How it was run: as §1

Fuc(a1-2)Gal(b1-3)GlcNAc = biological target: Fuc(a1-2)Gal(b1-3)GlcNAc
How it was run: as §1

[6] = biological target: Fuc(a1-2)Gal(b1-3)GlcNAc(b1-2)Man(a1-3)[Fuc(a1-2)Gal(b1-3)GlcNAc(b1-2)Man(a1-6)]Man(b1-4)GlcNAc(b1-4)GlcNAc
How it was run: as §1

[7] = biological target: Fuc(a1-2)Gal(b1-3)GlcNAc(b1-2)Man(a1-3)[Fuc(a1-2)Gal(b1-3)GlcNAc(b1-2)Man(a1-6)]Man(b1-4)GlcNAc(b1-4)[Fuc(a1-6)]GlcNAc
How it was run: as §1

[8] = biological target: Fuc(a1-2)Gal(b1-3)GlcNAc(b1-3)Gal(b1-4)Glc
How it was run: as §1

[9] = biological target: Fuc(a1-2)Gal(b1-3)GlcNAc(b1-3)GalNAc
How it was run: as §1

[10] = biological target: Fuc(a1-2)Gal(b1-3)GlcNAc(b1-3)[Fuc(a1-2)Gal(b1-3)GlcNAc(b1-6)]GalNAc
How it was run: as §1

[11] = biological target: Fuc(a1-2)Gal(b1-3)GlcNAc(b1-3)[Gal(b1-4)GlcNAc(b1-6)]Gal(b1-4)Glc
How it was run: as §1

[12] = biological target: Fuc(a1-2)Gal(b1-3)GlcNAc(b1-3)[Neu5Ac(a2-6)Gal(b1-4)GlcNAc(b1-6)]Gal(b1-4)Glc
How it was run: as §1

[13] = biological target: Fuc(a1-2)Gal(b1-3)GlcNAc6S
How it was run: as §1

[14] = biological target: Fuc(a1-2)Gal(b1-3)[Fuc(a1-4)]GlcNAc
How it was run: as §1

[15] = biological target: Fuc(a1-2)Gal(b1-3)[Fuc(a1-4)]GlcNAc(b1-2)Man(a1-3)[Fuc(a1-2)Gal(b1-3)[Fuc(a1-4)]GlcNAc(b1-2)Man(a1-3)]Man(b1-4)GlcNAc(b1-4)GlcNAc
How it was run: as §1

[16] = biological target: Fuc(a1-2)Gal(b1-3)[Fuc(a1-4)]GlcNAc(b1-2)Man(a1-3)[Fuc(a1-2)Gal(b1-3)[Fuc(a1-4)]GlcNAc(b1-2)Man(a1-6)]Man(b1-4)GlcNAc(b1-4)[Fuc(a1-6)]GlcNAc(b1-4)[Fuc(a1-6)]GlcNAc
How it was run: as §1

[17] = biological target: Fuc(a1-2)Gal(b1-3)[Fuc(a1-4)]GlcNAc(b1-3)[Fuc(a1-3)[Gal(b1-4)]GlcNAc(b1-6)]Gal(b1-4)Glc
How it was run: as §1

[18] = biological target: Fuc(a1-2)Gal(b1-3)[Fuc(a1-4)]GlcNAc(b1-3)[Gal(b1-4)GlcNAc(b1-6)]Gal(b1-4)Glc
How it was run: as §1

Fuc(a1-2)Gal(b1-4)Glc = biological target: Fuc(a1-2)Gal(b1-4)Glc
How it was run: as §1

Fuc(a1-2)Gal(b1-4)Glc6S = biological target: Fuc(a1-2)Gal(b1-4)Glc6S
How it was run: as §1

Fuc(a1-2)Gal(b1-4)GlcNAc = biological target: Fuc(a1-2)Gal(b1-4)GlcNAc
How it was run: as §1

[19] = biological target: Fuc(a1-2)Gal(b1-4)GlcNAc(b1-2)Man
How it was run: as §1

[20] = biological target: Fuc(a1-2)Gal(b1-4)GlcNAc(b1-2)Man(a1-3)[Fuc(a1-2)Gal(b1-4)GlcNAc(b1-2)Man(a1-6)]Man(b1-4)GlcNAc(b1-4)GlcNAc
How it was run: as §1

[21] = biological target: Fuc(a1-2)Gal(b1-4)GlcNAc(b1-2)Man(a1-3)[Fuc(a1-2)Gal(b1-4)GlcNAc(b1-2)Man(a1-6)]Man(b1-4)GlcNAc(b1-4)[Fuc(a1-6)]GlcNAc
How it was run: as §1

[22] = biological target: Fuc(a1-2)Gal(b1-4)GlcNAc(b1-2)[Fuc(a1-2)Gal(b1-4)GlcNAc(b1-4)]Man(a1-3)[Fuc(a1-2)Gal(b1-4)GlcNAc(b1-2)Man(a1-6)]Man(b1-4)GlcNAc(b1-4)GlcNAc
How it was run: as §1

[23] = biological target: Fuc(a1-2)Gal(b1-4)GlcNAc(b1-3)Gal(b1-4)GlcNAc
How it was run: as §1

[24] = biological target: Fuc(a1-2)Gal(b1-4)GlcNAc(b1-3)Gal(b1-4)GlcNAc(b1-2)Man(a1-3)[Fuc(a1-2)Gal(b1-4)GlcNAc(b1-3)Gal(b1-4)GlcNAc(b1-2)Man(a1-6)]Man(b1-4)GlcNAc(b1-4)GlcNAc
How it was run: as §1

B1: Mermaid3 (Stilbonema majum) (protein)
chain: MGSSHHHHHHSSGLVPRGSHMAASGWLRSPQGTVVKLYRRSLSWSKADEFCKDVDGRLVVDRTADMHLFLIKNVLKEKKSRVWVGLRRTASHSRTWIWSDGTRQNEGDLDANLWLRDEPNDAAGEEECALFMYSPWEKAWGLNDYLCRGGCRNYQFICEKWIR
- glycan array binding signal (z-score) (Fuc(a1-2)Gal): 0.736
- glycan array binding signal (z-score) (Fuc(a1-2)Gal(b1-3)GalNAc): -0.827
- glycan array binding signal (z-score) [1]: -0.81
- glycan array binding signal (z-score) [2]: -0.568
- glycan array binding signal (z-score) [3]: -0.484
- glycan array binding signal (z-score) [4]: -0.196
- glycan array binding signal (z-score) [5]: -0.518
- glycan array binding signal (z-score) (Fuc(a1-2)Gal(b1-3)GlcNAc): -0.49
- glycan array binding signal (z-score) [6]: 2.35
- glycan array binding signal (z-score) [7]: 0.566
- glycan array binding signal (z-score) [8]: -0.249
- glycan array binding signal (z-score) [9]: -0.508
- glycan array binding signal (z-score) [10]: 0.961
- glycan array binding signal (z-score) [11]: -0.653
- glycan array binding signal (z-score) [12]: -0.703
- glycan array binding signal (z-score) [13]: -0.429
- glycan array binding signal (z-score) [14]: -0.224
- glycan array binding signal (z-score) [15]: 0.726
- glycan array binding signal (z-score) [16]: -0.465
- glycan array binding signal (z-score) [17]: -0.531
- glycan array binding signal (z-score) [18]: -0.697
- glycan array binding signal (z-score) (Fuc(a1-2)Gal(b1-4)Glc): -0.578
- glycan array binding signal (z-score) (Fuc(a1-2)Gal(b1-4)Glc6S): 0.26
- glycan array binding signal (z-score) (Fuc(a1-2)Gal(b1-4)GlcNAc): -0.526
- glycan array binding signal (z-score) [19]: 0.063
- glycan array binding signal (z-score) [20]: -0.201
- glycan array binding signal (z-score) [21]: 0.548
- glycan array binding signal (z-score) [22]: -0.628
- glycan array binding signal (z-score) [23]: -0.525
- glycan array binding signal (z-score) [24]: 0.368
